Measurements from the supplement of paper PMC3334620.
Over roughly 33,000 sequences, “E-score (-0.5 to 0.5)” has its median near -0.016; the highest 2% begin near 0.31. This is one part of the list.

Target: Cst6 (UniProt P40535)
Assay: PBM E-score (8-mer binding enrichment) (E-score (-0.5 to 0.5)); higher = stronger / more preferred TF binding; most listed sequences are background and not binding sites
Details: protein concentration: 200 nM; construct: GST-DNA-binding domain
Method in brief: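 Full-length yeast transcription factors or their DNA-binding domains, GST-tagged and expressed with PURExpress, were applied at about 100-200 nM to universal all-10-mer Agilent arrays. These arrays had been made double-stranded by primer extension on fresh or once-stripped slides. Detection used fluorescent anti-GST, normalisation used masliner, and E-scores for ungapped eight-base words pooled with reverse complements came from the Universal PBM Analysis Suite.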

| Sequence | PBM E-score |
| --- | --- |
| GCACGTGC | 0.16 |
| CGTCACGC | 0.441 |
| AAAACAAA | 0.237 |
| GCATTTAC | 0.0548 |
| AATAGTTG | 0.0973 |
| CCCGATCC | -0.322 |
| CAGAGGTC | -0.226 |
| GAGGGCGA | -0.338 |
| CTGATTCC | -0.0906 |
| AAGCACGA | 0.0616 |
| CACGCCAC | -0.00611 |
| CTTTGGGA | -0.148 |
| CTGTACAG | -0.083 |
| AGGATCCT | -0.0938 |
| CCCCACAA | 0.00463 |
| ACATTACG | 0.246 |
| ATGCTTGC | -0.0644 |
| CGAAGCTA | 0.0133 |
| GCAACAAA | 0.197 |
| CCGACAGA | -0.0857 |
| CGCCTCTA | 0.0912 |
| AGAGTGAA | 0.057 |
| ACGACCAC | 0.0611 |
| AGAGGCGC | 0.0173 |
| GGCTAGAA | -0.0974 |

| Sequence | PBM E-score |
| --- | --- |
| ACGCCCCT | -0.183 |
| CTAACAAG | 0.036 |
| ACGTTCCT | -0.016 |
| GGAATACA | -0.0611 |
| ACCAAGAG | -0.0362 |
| CGGCGCCC | 0.143 |
| GAGCTCAA | 0.0144 |
| ATCGGGGA | -0.274 |
| AGCGGATA | -0.265 |
| CGGCTCTC | -0.00463 |
| GAGGTTCA | 0.104 |
| ACAACAGA | 0.0382 |
| CGTACTTC | 0.0787 |
| ATAGGCAG | 0.0943 |
| ACATATCG | 0.0617 |
| TACCCGAA | -0.133 |
| CGCACCTA | -0.0259 |
| AAACCGAT | -0.0766 |
| CAGCGGCC | -0.259 |
| CGTTATAG | 0.0827 |
| ATGTGGTG | 0.151 |
| GCGGCTCA | 0.266 |
| CATTTCTC | 0.152 |
| TGAGAAAA | 0.154 |
| GCACTGCC | 0.0838 |

| Sequence | PBM E-score |
| --- | --- |
| AACCCCCA | -0.377 |
| AAGGGGCG | -0.284 |
| AAGACCAA | -0.0345 |
| GCGCTTCA | 0.00479 |
| GAGACTGC | -0.142 |
| AAACTATG | 0.0424 |
| ACGTTAAA | 0.195 |
| CCCTGCGC | -0.153 |
| TCGTGTCA | 0.0699 |
| ACTGATTA | 0.165 |
| CGTTAAAG | 0.0934 |
| CGTGCTTC | 0.0879 |
| CCACGTAG | -0.186 |
| ATCACCCC | 0.0738 |
| AACTTATC | 0.0146 |
| GCGCGTCC | -0.198 |
| AGCCCAGA | -0.209 |
| CCTAGCCG | -0.0555 |
| CTAAAAAC | -0.0449 |
| CCGCTCCC | -0.329 |
| AGACTCAC | -0.217 |
| ATAAGTAT | -0.042 |
| CTTCGTTA | 0.11 |
| CAGGTTAG | -0.116 |
| ATATCTAG | 0.028 |

| Sequence | PBM E-score |
| --- | --- |
| AGGGTTTA | -0.00187 |
| TCTTTAAA | 0.188 |
| ATTGAGGG | -0.186 |
| CAGCGCCA | -0.174 |
| CAATTATC | 0.191 |
| GTAGCGAA | -0.0567 |
| ATTCGCCG | 0.188 |
| CGCGTAAG | 0.179 |
| CGACACCA | -0.0683 |
| AAGTGCGG | 0.116 |
| CCATTGTC | -0.104 |
| ATTGGGGG | -0.287 |
| AGCCGTAG | 0.0859 |
| ACATGTTC | -0.138 |
| GCCAGTAA | -0.144 |
| ACAATAGA | 0.139 |
| CGCACTCA | 0.053 |
| CGATAGAG | -0.123 |
| ATTCCAAA | 0.118 |
| TGACCACA | 0.00133 |
| GGCCGGCA | -0.06 |
| AAACATAG | -0.0796 |
| ACTTCTAG | -0.206 |
| CTCCCACC | -0.335 |
| CGTCAGGC | 0.212 |

| Sequence | PBM E-score |
| --- | --- |
| GAGGCCGA | -0.124 |
| GCGTACGA | 0.122 |
| TAATAGGA | 0.149 |
| CGTCTAGA | -0.17 |
| ACTTTATG | 0.174 |
| GATGCCAA | 0.0684 |
| CGTGCTCA | -0.00224 |
| CCACGACG | 0.00619 |
| CGGCCGCC | -0.0119 |
| AATTGTGC | 0.201 |
| CCTATCGA | -0.109 |
| TAGCATAA | 0.015 |
| CACAATAG | -0.0192 |
| GGCCGGAA | -0.275 |
| AACGTCGA | 0.133 |
| CAAACGTG | 0.0882 |
| ACATATGG | 0.0745 |
| GGCGCAGA | 0.0181 |
| CTACAACC | -0.013 |
| ACGGTAGC | -0.0866 |
| CTCGCTTC | -0.238 |
| ACTGGAAG | -0.153 |
| GCCTAAGC | -0.194 |
| GAACGCCC | -0.202 |
| AATTTGGC | 0.0196 |

| Sequence | PBM E-score |
| --- | --- |
| ACGAGCGC | -0.105 |
| AATTACGT | 0.462 |
| ATGTGATA | 0.261 |
| ATCCCCCA | -0.429 |
| CAGCTCTC | -0.172 |
| CAGCAGTA | -0.0384 |
| GCATTACC | -0.088 |
| TAGGACTA | -0.0879 |
| AAATCTTG | 0.203 |
| AAGACGGG | -0.176 |
| GACCGTAA | 0.0286 |
| AGACGGAC | 0.0277 |
| ACTAGCCT | -0.0938 |
| ACCAGGAA | -0.176 |
| ACACCCCT | -0.171 |
| AACCTGGT | -0.128 |
| ACCAACAG | -0.104 |
| ACCCCGCC | -0.0543 |
| CCCGCCCA | 0.0519 |
| CAATCTGA | 0.0175 |
| CAGCTCAC | -0.129 |
| CTTTGTCC | -0.0809 |
| ACGTTAGT | 0.239 |
| CCCCTTCA | -0.248 |
| TCAGCACA | 0.171 |

| Sequence | PBM E-score |
| --- | --- |
| ACGGATGA | 0.0946 |
| ATCCAGAT | -0.0912 |
| GTTCGGAA | -0.0377 |
| GGCTAGGA | -0.159 |
| AATCCGCC | -0.259 |
| AAATGCTT | -0.00158 |
| CCGATCGG | 0.0601 |
| CTCCATGC | -0.125 |
| AGGGTGTG | -0.146 |
| GAGTCGGC | -0.234 |
| CGTCAGAA | 0.286 |
| CTCTTTCA | 0.0197 |
| ACCTTCGT | -0.0927 |
| AGTGGCGC | 0.00481 |
| GCGTACCA | -0.0573 |
| GGCAGACC | -0.318 |
| GTTCTGAA | 0.143 |
| CGGAGCGC | -0.159 |
| TAGGCTCA | -0.14 |
| CAGCACCA | -0.308 |
| GGTCCGGA | -0.177 |
| CGATGTTC | -0.222 |
